From PubChem BioAssay AID720507 (National Center for Advancing Translational Sciences (NCATS), 2013)
Out of some 2,300 compounds screened, about 140 (6.1%) were called active. Inconclusive results, whose numbers are uncertain, are shown with a selection of clear calls. The call rests on the fitted dose curve; in most records, active means well fitted activation curve with a large enough effect; inconclusive means small, poorly fitted or top-dose-only effect; inactive means flat fitted curve, though single readings scatter. Potencies of inconclusive entries are left out as doubtful fits.

molecular target: D(2) dopamine receptor (Homo sapiens) (UniProt P14416); assay: qHTS of D3 Dopamine Receptor Agonist: D2 Dopamine Receptor B-arrestin Agonist Counterscreen; conditions: DiscoveRx PathHunter D2 beta-arrestin, luminescence, 90 min; series mostly up to 76.9 µM; activation: at the top concentration; further: nearly all actives have a fitted effect of over 70% in size; on activation: % of control where 0% means no effect
UniProt P14416, sequence (P14416 whole entry, looked up): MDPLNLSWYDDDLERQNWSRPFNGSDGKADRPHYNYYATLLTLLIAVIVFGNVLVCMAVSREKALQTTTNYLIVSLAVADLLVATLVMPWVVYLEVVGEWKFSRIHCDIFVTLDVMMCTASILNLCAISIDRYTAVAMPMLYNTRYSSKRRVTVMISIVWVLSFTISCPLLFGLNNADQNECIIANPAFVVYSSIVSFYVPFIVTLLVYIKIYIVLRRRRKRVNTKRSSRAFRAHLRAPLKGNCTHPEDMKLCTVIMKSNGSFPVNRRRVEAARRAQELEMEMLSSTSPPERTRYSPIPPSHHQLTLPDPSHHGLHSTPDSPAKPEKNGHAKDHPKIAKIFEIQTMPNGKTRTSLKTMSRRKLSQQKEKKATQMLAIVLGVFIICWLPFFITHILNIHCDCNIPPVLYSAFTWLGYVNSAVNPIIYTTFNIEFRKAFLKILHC
Method in brief: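 DiscoveRx D2 β-arrestin cells plated overnight at 37 deg C, 5% CO2, then exposed to compounds or dopamine control for 90 minutes at 37 deg C. Detection reagent added; luminescence read after 1 hour at ambient temperature.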
Potency means the concentration at half of the fitted maximal effect; tags describe the fitted curve by direction and shape.

| Compound | activation | Potency |
| --- | --- | --- |
| Cc1csc(NC(=O)c2cnc3ccccc3n2)n1 | inactive: 0.673% |  |
| CN(C)S(=O)(=O)c1cccc(NC(=O)CSc2ncnc3ccccc23)c1 |  | inconclusive [activator, partial curve, poor fit] |
| Cc1onc(-c2c(Cl)cccc2Cl)c1C(=O)N1CCc2ccccc2C1 | inactive: -1.11% |  |
| CCOC(=O)C1CCN(Cc2ccc(OCc3ccccc3)cc2)CC1 |  | inconclusive [activator, partial curve] |
| OC(CSc1c(Cl)cccc1Cl)CN1CCN(c2ccccc2F)CC1 (configuration not stated) |  | inconclusive [activator, partial curve] |
| COc1cc(/C=C/C(=O)OCC(=O)Nc2cc(C)c(C)cc2[N+](=O)[O-])ccc1O | inactive: -1.85% |  |
| CCCCN(CC)CCNC(=O)c1cc2c(-c3ccc(Cl)cc3)nn(C)c2s1 |  | active: 25.1 µM |
| CCOC(=O)C1CCN(Cc2cccc(Oc3ccc(Cl)cc3)c2)CC1 |  | active: 39.8 µM |
| NC[C@@H]1O[C@H](C23CC4CC(CC(C4)C2)C3)Cc2c1ccc(O)c2O |  | active: 35.5 µM |
| Clc1ccc(CN2CCN(c3ncccn3)CC2)cc1 |  | active: 2.82 µM |
| CC(C(=O)Nc1ccc([N+](=O)[O-])cc1)N1CCN(C/C=C/c2ccccc2)CC1 (configuration not stated) |  | inconclusive [activator, partial curve] |
| O=C(O)[C@@H]1[C@H]2C[C@H]3c4[nH]c5ccccc5c4CCN3C[C@@H]2CC[C@@H]1O |  | inconclusive [activator, full curve] |
| Clc1ccc(CN2CCN(c3ncccn3)CC2)c(Cl)c1 |  | active: 28.2 µM |
| CN(C)c1ncc(CN2CCC(CO)(CCCc3ccccc3)CC2)s1 |  | inconclusive [activator, full curve] |
| O=C(Nc1ccccc1Cl)N1CCN(c2ccccn2)CC1 | inactive: -0.899% |  |
| COc1ccc(/C=N/NC(=O)c2nnn(-c3nonc3N)c2-c2cccc(OC)c2)cc1 | inactive: -1.16% |  |
| CNCC(O)c1ccc(O)c(O)c1 (configuration not stated) |  | active: 17.8 µM |
| Brc1cccc(OCCN2CCc3ccccc3C2)c1 | inactive: 1.08% |  |
| O=C(COc1ccc2oc(-c3ccccc3)cc(=O)c2c1)Nc1ccccc1 | inactive: 1.18% |  |
| COc1ccc(C(=O)CCN2CCN(c3ccccc3F)CC2)cc1 | inactive: 0.071% |  |
| O=C(Nc1ccc(F)cc1)C1CC2CCC1C2 (configuration not stated) | inactive: -5.77% |  |
| Cc1cc(-c2ccc(C)c(S(=O)(=O)NCCCN3CCN(c4ccccc4)CC3)c2)on1 |  | inconclusive [activator, full curve] |
| O=C(c1ccco1)N1CCN(CC2CC3C=CC2C3)CC1 (configuration not stated) |  | inconclusive [activator, partial curve] |
| O=C(c1cc2ccccc2o1)N1CCN(CCOc2ccccc2)CC1 |  | inconclusive [activator, full curve] |

| Compound | activation | Potency |
| --- | --- | --- |
| CCOC(=O)C1=CCN(Cc2ccccc2)CC1 |  | inconclusive [activator, partial curve] |
| CN(CCOc1ccc(Cl)cc1)Cc1cccc(S(=O)(=O)N(C)C)c1 |  | inconclusive [activator, partial curve, poor fit] |
| CCc1ccccc1NC(=O)C1CCCN1S(=O)(=O)c1ccc(-c2ccc(=O)[nH]n2)s1 (configuration not stated) | inactive: 2.16% |  |
| O=[N+]([O-])c1ccc(CN2CCN(c3ncccn3)CC2)cc1 |  | active: 17.8 µM |
| COc1ccc(S(=O)(=O)NCC(c2ccc3c(c2)OCO3)N2CCN(c3ccccc3)CC2)cc1 (configuration not stated) |  | active: 11.2 µM |
| CN(CC(=O)NCCN1CCN(c2ccccc2)CC1)S(=O)(=O)c1ccc2c(c1)CCC(=O)N2 |  | inconclusive [activator, partial curve] |
| Cn1cc(C(F)(F)F)nc1-c1ccc(OCC(O)CNCCOc2ccc(O)c(C(N)=O)c2)cc1 (configuration not stated) |  | inconclusive [activator, full curve, poor fit] |
| O=C(CCN1CCCC1Cc1ccccc1)c1ccc2c(c1)OCCO2 (configuration not stated) |  | inconclusive [activator, full curve] |
| Cn1c(CCN2CCN(c3ccccn3)CC2)nc2cc(NS(=O)(=O)c3ccccc3)ccc21 |  | inconclusive [activator, full curve] |
| O=C(c1cccs1)N1CCN(Cc2cn[nH]c2-c2ccc(F)cc2F)CC1 |  | inconclusive [activator, partial curve] |
| COc1ccccc1N1CCN(C2CCN(C(=O)c3ccc(F)cc3)CC2)CC1 | inactive: 2.28% |  |
| O=C(Nc1ccnn1C1CCN(CCCc2ccccc2)CC1)c1ccccc1Cl |  | inconclusive [activator, full curve] |
| COC(=O)CCN(C(=O)C12CC3CC(CC(C3)C1)C2)c1ccccn1 |  | inconclusive [activator, full curve, poor fit] |
| Nc1nc(CN2CCN(c3cccc(Cl)c3)CC2)nc(N2CCCc3ccccc32)n1 |  | inconclusive [activator, partial curve] |
| O=C(c1ccc(F)c(S(=O)(=O)N2CCOCC2)c1)N(c1ccccc1)c1ccccn1 |  | inconclusive [activator, full curve, poor fit] |
| OC(COc1cccc2ccccc12)CN1CCN(c2ccccc2)CC1 (configuration not stated) | inactive: 23.3% |  |
| COc1ccc(S(=O)(=O)N2CCC(N3CCN(c4ccccc4)CC3)CC2)cc1 |  | inconclusive [activator, full curve] |
| O=S(=O)(c1ccc(OCC(O)CN2CCN(c3ccc(F)cc3)CC2)cc1)N1CCOCC1 (configuration not stated) |  | inconclusive [activator, full curve, poor fit] |
| O=C(Cn1c(=O)c2cccn2c2ccc(F)cc21)NCCCN1CCN(c2ccccc2F)CC1 |  | inconclusive [activator, full curve] |
| O[C@@H]1CN(Cc2ccc(-n3cccn3)cc2)CC[C@H]1N1CCN(c2ccccc2F)CC1 |  | inconclusive [activator, full curve] |
| COC(=O)c1ccc(NC(=O)CCN2CCN(c3ccccc3)CC2)cc1 |  | inconclusive [activator, full curve, poor fit] |
| CC(OC(=O)c1cc[n+]([O-])cc1)C(=O)Nc1ccc(C(N)=O)cc1 (configuration not stated) | inactive: -3.93% |  |
| CC(C)c1ccc(OCC(O)CN2CCN(c3ccccn3)CC2)cc1 (configuration not stated) |  | active: 39.8 µM |
| CC(Oc1ccc(Br)cc1)C(=O)NNC(=O)CCN1CCN(c2ccccc2)CC1 (configuration not stated) |  | inconclusive [activator, partial curve] |

| Compound | activation | Potency |
| --- | --- | --- |
| CCCCC(=O)NNC(=S)NC(=O)C(c1ccccc1)c1ccccc1 | inactive: -7.08% |  |
| CCOC(=O)N1CCN(CC(=O)Nc2ccc(Oc3ccccc3)cc2)CC1 |  | inconclusive [activator, full curve] |
| Nc1ccn(CC(=O)NCc2ccc3[nH]ccc3c2)c(=O)n1 |  | inconclusive [activator, full curve, poor fit] |
| COc1ccc(CCN2CC(C(=O)N(C)CC(=O)Nc3ccc(Cl)c(C(F)(F)F)c3)CC2=O)cc1OC (configuration not stated) | inactive: 8.68% |  |
| CCCCc1ccc(N/C(N)=N/c2nc(C)cc(C)n2)cc1 |  | inconclusive [activator, full curve] |
| CCOC(=O)C1CCN(Cc2cccc(OCc3ccccc3)c2)CC1 |  | inconclusive [activator, full curve] |
| CC(C(=O)Nc1cccc([N+](=O)[O-])c1)N1CCN(C/C=C/c2ccccc2)CC1 (configuration not stated) |  | inconclusive [activator, partial curve, poor fit] |
| O=S(=O)(NCC(c1ccc2c(c1)OCO2)N1CCN(c2ccccc2)CC1)c1ccccc1 (configuration not stated) |  | inconclusive [activator, partial curve] |
| FC(F)(F)c1cccc(NC(=S)N2CCN(c3ccccn3)CC2)c1 | inactive: 4.3% |  |
| CCOc1ccc(Nc2nc(N)nc(CN3CCN(c4ccccc4F)CC3)n2)cc1 |  | inconclusive [activator, partial curve] |
| O=C(c1ccc(Cl)cc1)N1CCN(CCOc2ccccc2)CC1 |  | active: 25.1 µM |
| O=C(/C=C/c1ccccc1Cl)N(c1ccccn1)C1CCCCC1 |  | inconclusive [activator, full curve, poor fit] |
| O=c1c2cccnc2[nH]c(=S)n1CCCN1CCN(c2ccccc2F)CC1 |  | inconclusive [activator, full curve, poor fit] |
| O=C(NC1CCCC1)C1CCC(CNS(=O)(=O)c2ccc(F)cc2)CC1 (configuration not stated) | inactive: -0.144% |  |
| O=C(CNS(=O)(=O)c1ccccc1)OCc1cccc([N+](=O)[O-])c1 | inactive: -0.379% |  |
| O=C(OCCN1C(=O)c2cccc3c(N4CCOCC4)ccc(c23)C1=O)c1ccccc1Cl |  | inconclusive [activator, partial curve] |
| COc1cc(C=NCC2OCCc3ccccc32)cc(OC)c1 (configuration not stated) | inactive: 8.78% |  |
| O=C(NCCCN1CCN(c2ccccc2F)CC1)Nc1ccccc1[N+](=O)[O-] |  | inconclusive [activator, full curve, poor fit] |
| Fc1cccc(CN2CCN(c3ncccn3)CC2)c1 |  | active: 1.41 µM |
| COCCN=c1scc(-c2cccs2)n1/N=C/c1ccc(O)c(O)c1O |  | active: 7.08 µM |
| CCc1ccccc1NC(=O)c1cc(-c2cccc(O)c2)on1 | inactive: -0.828% |  |
| Nc1nc(CN2CCN(c3ccccc3F)CC2)nc(N2CCCc3ccccc32)n1 |  | inconclusive [activator, full curve] |
| COc1ccc(CN2CCN(C(=O)c3ccco3)CC2)cc1 |  | active: 10 µM |
| O=C(c1cccc2ccccc12)N1CCC(N2CCN(c3ccccc3)CC2)CC1 |  | inconclusive [activator, full curve] |
